Where a name gives a salt, the structure may show the parent alone. ± gives the standard deviation of the averaged measurements. The list shows a part of the results.
Legend:
[1] = tested on: murine small intestinal organoids (ENR+CD Paneth differentiation); assay: cellular ATP (CellTiter-Glo 3D) relative to plate median (log10 fold change); higher = more viable cells; settings: 6 d
[2] = tested on: murine small intestinal organoids (ENR+CD Paneth differentiation); assay: carbachol-stimulated secreted lysozyme activity relative to plate median (log10 fold change); higher = more Paneth cell lysozyme secretion; settings: 6 d, carbachol 10 µM
[3] = tested on: murine small intestinal organoids (ENR+CD Paneth differentiation); assay: basal (non-stimulated) secreted lysozyme activity relative to plate median (log10 fold change); higher = more Paneth cell lysozyme secretion; settings: 6 d
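Wherever basal (non-stimulated) secreted lysozyme activity relative to plate median is given: ISC-enriched organoid precursors grown as 2.5D pseudo-monolayer on Matrigel, compound given on day 0 and day 3, plate values LOESS-normalized before median fold change, three murine donors.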
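Wherever cellular ATP (CellTiter-Glo 3D) relative to plate median is given: 2.5D pseudo-monolayer culture of ISC-enriched organoids partly embedded atop Matrigel, compound added on day 0 and again on day 3, per-plate LOESS correction before median fold change.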

SMILES	cellular ATP (log10) ([1]; 0.08 µM)	cellular ATP (log10) ([1]; 0.4 µM)	cellular ATP (log10) ([1]; 2 µM)	cellular ATP (log10) ([1]; 10 µM)	carbachol-stimulated secreted lysozyme activity (log10) ([2]; 0.08 µM)	carbachol-stimulated secreted lysozyme activity (log10) ([2]; 0.4 µM)	carbachol-stimulated secreted lysozyme activity (log10) ([2]; 2 µM)	carbachol-stimulated secreted lysozyme activity (log10) ([2]; 10 µM)	basal (log10) ([3]; 0.08 µM)	basal (log10) ([3]; 0.4 µM)	basal (log10) ([3]; 2 µM)	basal (log10) ([3]; 10 µM)
COc1ccc(-n2nc(C(N)=O)c3c2C(=O)N(c2ccc(N4CCCCC4=O)cc2)CC3)cc1 [Apixaban]	-0.0887 ± 0.14	0.111 ± 0.039	-0.0603 ± 0.25	-0.0773 ± 0.045	0.0759 ± 0.094	0.0384 ± 0.14	0.0319 ± 0.076	-0.117 ± 0.03	0.00406 ± 0.051	-0.0299 ± 0.038	0.0291 ± 0.1	-0.0818 ± 0.053
O=C(Nc1cc(C(F)(F)F)cc(C(F)(F)F)c1)c1cc(Cl)ccc1O	-0.00695 ± 0.19	0.117 ± 0.29	0.0758 ± 0.062	-0.48 ± 0.47	-0.0221 ± 0.00055	0.0912 ± 0.15	0.116 ± 0.047	-0.0761 ± 0.034	0.00404 ± 0.14	0.101 ± 0.17	0.0973 ± 0.1	-0.0892 ± 0.061
Cc1ccc([C@@H]2O[C@H](CO)[C@@H](O)[C@H](O)[C@H]2O)cc1Cc1ccc(-c2ccc(F)cc2)s1 [Canagliflozin]	-0.24 ± 0.13	-0.0985 ± 0.21	0.0421 ± 0.041	-0.0789 ± 0.12	0.0181 ± 0.21	-0.0468 ± 0.07	0.0145 ± 0.059	0.0179 ± 0.051	-0.0268 ± 0.12	-0.0457 ± 0.036	0.0246 ± 0.037	-0.0639 ± 0.042
Cc1cn([C@H]2C=C[C@@H](CO)O2)c(=O)[nH]c1=O [Stavudine (d4T)]	-0.0325 ± 0.27	-0.0509 ± 0.47	-0.331 ± 0.74	-0.265 ± 0.55	-0.00609 ± 0.29	-0.202 ± 0.29	-0.124 ± 0.18	-0.277 ± 0.24	0.0171 ± 0.13	-0.0804 ± 0.16	-0.0905 ± 0.2	-0.155 ± 0.14
Cc1cc(NC(=O)Nc2ccc(N(C)C)cc2)c2cc(F)cc(F)c2n1	0.253 ± 0.47	0.234 ± 0.3	0.338 ± 0.28	0.174 ± 0.16	-0.0488 ± 0.56	0.178 ± 0.23	0.12 ± 0.13	-0.00412 ± 0.092	0.0766 ± 0.26	0.127 ± 0.081	0.0944 ± 0.085	0.156 ± 0.25
C#CCC(Cc1cnc2nc(N)nc(N)c2n1)c1ccc(C(=O)N[C@@H](CCC(=O)O)C(=O)O)cc1 (stereo partly specified) [Pralatrexate]	-0.682 ± 0.65	-0.568 ± 0.7	-0.41 ± 0.49	-0.709 ± 0.48	-0.267 ± 0.065	-0.0995 ± 0.15	0.049 ± 0.39	-0.161 ± 0.21	-0.143 ± 0.085	-0.0915 ± 0.082	-0.0747 ± 0.063	-0.0728 ± 0.057
CCOc1ccc(Cc2cc([C@@H]3O[C@H](CO)[C@@H](O)[C@H](O)[C@H]3O)ccc2Cl)cc1 [Dapagliflozin]	0.41 ± 0.26	0.254 ± 0.026	0.293 ± 0.11	0.301 ± 0.18	0.3158 ± 0.0022	0.152 ± 0.052	0.162 ± 0.2	0.138 ± 0.25	0.17 ± 0.099	0.0967 ± 0.064	0.159 ± 0.073	0.136 ± 0.089
CC(=NNC(=S)N1CCC1)c1ccccn1	0.132 ± 0.097	-0.185 ± 0.38	-0.447 ± 0.72	-1.91 ± 0.14	0.11 ± 0.062	0.0744 ± 0.69	-0.283 ± 0.28	-0.373 ± 0.024	0.113 ± 0.087	-0.0896 ± 0.23	-0.152 ± 0.15	-0.229 ± 0.097
Clc1ccccc1CN1CCc2sccc2C1 [Ticlopidine HCl]	-0.0887 ± 0.1	0.0364 ± 0.14	-0.186 ± 0.21	-0.14 ± 0.21	0.137 ± 0.13	0.0277 ± 0.1	0.0279 ± 0.12	0.0681 ± 0.0052	-0.000829 ± 0.046	0.0152 ± 0.024	-0.00343 ± 0.065	0.154 ± 0.33
OC(CC1c2ccccc2-c2cncn21)C1CCCCC1 (stereo unspecified)	-0.0981 ± 0.11	-0.168 ± 0.13	-0.126 ± 0.06	-0.203 ± 0.095	0.0122 ± 0.05	-0.101 ± 0.32	0.114 ± 0.29	-0.0201 ± 0.019	-0.0532 ± 0.023	-0.115 ± 0.085	-0.0619 ± 0.034	-0.0156 ± 0.031
C[S+]([O-])c1ccc(-c2nc(-c3ccc(F)cc3)c(-c3ccncc3)[nH]2)cc1 (stereo unspecified)	-0.0491 ± 0.25	0.061 ± 0.14	0.145 ± 0.13	0.33 ± 0.19	-0.0457 ± 0.062	0.00562 ± 0.085	0.0505 ± 0.093	0.0563 ± 0.17	0.0252 ± 0.12	0.0911 ± 0.1	0.064 ± 0.015	0.0197 ± 0.066
CC(C)n1c(/C=C/C(O)CC(O)CC(=O)O)c(-c2ccc(F)cc2)c2ccccc21 (stereo unspecified) [Fluvastatin Sodium]	-0.161 ± 0.17	-0.482 ± 0.16	-1.11 ± 0.18	-1.76 ± 0.76	0.0412 ± 0.029	-0.222 ± 0.066	-0.344 ± 0.1	-0.343 ± 0.0039	0.112 ± 0.14	-0.146 ± 0.085	-0.203 ± 0.11	-0.159 ± 0.093
Nc1nc(N)c2nc(-c3cccc(O)c3)c(-c3cccc(O)c3)nc2n1	-0.301 ± 0.25	0.0821 ± 0.21	-0.00427 ± 0.23	-0.109 ± 0.08	-0.024 ± 0.1	0.0654 ± 0.059	0.0288 ± 0.14	-0.0352 ± 0.071	0.165 ± 0.27	0.0069 ± 0.03	0.017 ± 0.026	-0.00553 ± 0.087
CC(C)(C)c1nc(-c2cccc(NS(=O)(=O)c3c(F)cccc3F)c2F)c(-c2ccnc(N)n2)s1	-0.134 ± 0.14	0.0108 ± 0.098	-0.279 ± 0.13	-0.8 ± 0.028	0.179 ± 0.1	0.0653 ± 0.03	-0.00753 ± 0.069	-0.455 ± 0.14	0.0953 ± 0.083	0.0491 ± 0.049	-0.00073 ± 0.12	-0.25 ± 0.15
O=C(NC(NC(=S)Nc1ccc(F)c([N+](=O)[O-])c1)C(Cl)(Cl)Cl)C(c1ccccc1)c1ccccc1 (stereo unspecified)	-0.362 ± 0.17	-0.0926 ± 0.05	-0.244 ± 0.27	-0.478 ± 0.32	0.00234 ± 0.044	-0.0787 ± 0.046	-0.114 ± 0.056	-0.284 ± 0.26	0.0991 ± 0.14	-0.0255 ± 0.12	-0.0993 ± 0.025	-0.122 ± 0.27
CCn1c(N)c(C(=O)NC)c(=O)c2ccc(C#CC(C)(O)COC)nc21 (stereo unspecified)	0.227 ± 0.11	0.2 ± 0.22	0.214 ± 0.37	0.194 ± 0.41	0.0276 ± 0.095	0.107 ± 0.16	0.205 ± 0.014	0.159 ± 0.095	0.0362 ± 0.094	0.0837 ± 0.086	0.0945 ± 0.069	-0.054 ± 0.098
O=S(=O)(c1ccccc1)N(CC(F)(F)F)c1ccc(C(O)(C(F)(F)F)C(F)(F)F)cc1	0.063 ± 0.38	-0.22 ± 0.92	0.216 ± 0.33	0.245 ± 0.45	0.0129 ± 0.072	-0.0231 ± 0.077	0.0483 ± 0.16	0.0285 ± 0.12	0.0842 ± 0.054	0.00181 ± 0.09	0.0123 ± 0.069	-0.0212 ± 0.023
CNC(=O)[C@H](Cc1ccccc1)NC(=O)[C@H](CC(C)C)[C@H](CSc1cccs1)C(=O)NO [Batimastat (BB-94)]	0.0352 ± 0.045	-0.0946 ± 0.17	-0.049 ± 0.14	-0.283 ± 0.21	-0.0112 ± 0.089	0.00423 ± 0.037	0.0608 ± 0.0089	-0.162 ± 0.054	-0.00283 ± 0.05	0.00477 ± 0.09	0.0813 ± 0.078	-0.0746 ± 0.11
CCOc1nc2cccc(C(=O)O)c2n1Cc1ccc(-c2ccccc2-c2nnn[nH]2)cc1 [Candesartan]	-0.00318 ± 0.23	-0.125 ± 0.26	-0.198 ± 0.24	-0.253 ± 0.26	-0.0495 ± 0.19	-0.0799 ± 0.02	-0.102 ± 0.19	-0.0629 ± 0.096	0.013 ± 0.16	-0.0147 ± 0.1	0.00743 ± 0.091	-0.0507 ± 0.039
CO[C@H]1C[C@@H]2CC[C@@H](C)[C@@](O)(O2)C(=O)C(=O)N2CCCC[C@H]2C(=O)O[C@H]([C@H](C)C[C@@H]2CC[C@@H](OP(C)(C)=O)[C@H](OC)C2)CC(=O)[C@H](C)/C=C(\C)[C@@H](O)[C@@H](OC)C(=O)[C@H](C)C[C@H](C)/C=C/C=C/C=C/1C [Ridaforolimus (Deforolimus, MK-8669)]	0.443 ± 0.34	-0.156 ± 0.43	-0.339 ± 0.64	-0.707 ± 1.1	0.0543 ± 0.036	-0.131 ± 0.23	-0.146 ± 0.34	-0.128 ± 0.3	0.0128 ± 0.013	-0.0065 ± 0.25	-0.0322 ± 0.23	-0.09 ± 0.21
C[C@H](CS)C(=O)N1CCC[C@H]1C(=O)O [Captopril]	-0.0561 ± 0.097	0.108 ± 0.096	0.123 ± 0.1	0.107 ± 0.31	0.0242 ± 0.07	0.113 ± 0.094	0.0139 ± 0.14	0.0928 ± 0.18	0.0587 ± 0.079	0.0353 ± 0.049	0.0327 ± 0.11	0.153 ± 0.14
CC(Oc1cc(-c2cnn(C3CCNCC3)c2)cnc1N)c1c(Cl)ccc(F)c1Cl [(S)-crizotinib]	0.241 ± 0.15	0.0544 ± 0.086	0.112 ± 0.23	0.0194 ± 0.41	0.151 ± 0.012	0.007 ± 0.15	-0.103 ± 0.071	-0.163 ± 0.17	0.193 ± 0.17	0.00932 ± 0.021	-0.0338 ± 0.09	-0.0676 ± 0.097
CC(C)(F)C[C@H](N[C@@H](c1ccc(-c2ccc(S(C)(=O)=O)cc2)cc1)C(F)(F)F)C(=O)NC1(C#N)CC1 [Odanacatib (MK-0822)]	0.119 ± 0.23	0.208 ± 0.31	-0.00842 ± 0.33	0.00615 ± 0.4	0.154 ± 0.1	0.293 ± 0.3	0.109 ± 0.07	-0.0572 ± 0.085	0.0864 ± 0.19	0.162 ± 0.28	0.0244 ± 0.11	-0.0353 ± 0.1
